Some of the results follow. These are further read-outs of the screen, such as a control signal, another cell line or another target. No call is given for them. Most of these compounds were active or inconclusive in the main read-out, so they are no random draw.

This assay in a line: beta-lactam sensitization of Mtb H37Rv, H37Rv (AID 434955).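 Also: growth measured after seven days incubation then overnight dye step; 0% = bacteria only wells and 100% = bacteria with antibiotic.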 Particulars: M. tuberculosis H37Rv growth with meropenem, percent inhibition; measured here: primary screen without meropenem; at 25 µM.
The inhibition is the drop in the measured response relative to a control, in per cent. As for `Cc1cccn2c(=O)c3c(nc12)N1CCc2ccccc2C1C1(C3)C(=O)NC(=O)N(C)C1=O` (stereo not drawn), the inhibition is 10.1%. Turning to `Cc1cccc(C)c1NC(=O)C1CC2CCC1C2` (stereo not drawn), the inhibition was determined as 14.5%.

`Cc1ccc(/C=N/n2c(COc3ccccc3)n[nH]c2=S)cc1`: the inhibition was determined as 6.13%. Under `COC(=O)c1ccc(Cn2nc(-c3ccccc3)ccc2=O)cc1` stands 2.25%. Take `Cc1ccc(C(=O)COC(=O)CNS(=O)(=O)c2ccc(C)cc2)cc1`: the inhibition is -1.19%.

Turning to `Cc1ccccc1Nc1nc(N)nc(COC(=O)c2cccc(S(=O)(=O)N(C)C)c2)n1`, the inhibition is -3.15%. Under `CCOC(=O)c1sc(Nc2nc3c(OC)cccc3s2)cc1C` stands 48.9%; under `CCN(CC)c1ccc2cc(-c3nc4ccccc4n3C)c(=O)oc2c1`, 80.1%; under `Cc1[nH]n(-c2ccccc2)c(=O)c1S(=O)(=O)c1ccccc1`, 6.77%. Under `COc1ccc(OC)c(N(CC(=O)NC2CCCC2)S(=O)(=O)c2ccc(OC)c(OC)c2)c1` stands 8.58%; under `COc1cc(C(=O)Oc2cccnc2)cc(OC)c1OC`, 17.3%; under `O=C(c1ccco1)n1nc(-c2ccccc2)nc1NCc1ccco1`, 1.72%. Under `COc1cccc2c1OC1(C)CC2/C(=C(\C)O)C(=O)N1` (stereo not drawn) stands 3.87%. In the case of `CCCCn1c(N)c(N(CCC(C)C)C(=O)CCCc2nc3ccccc3s2)c(=O)[nH]c1=O`, the inhibition turned out to be 2.15%.

In the case of `Cc1ccc(NC(=O)CS(=O)CC(=O)Nc2cccc(C)c2C)cc1F` (stereo not drawn), the inhibition is -10.4%. With `Cc1cc(NC(=O)c2cccc(S(=O)(=O)N3CCC(C)CC3)c2)no1` the figure was -2%; with `COc1cccc(S(=O)(=O)Nc2cccnc2)c1`, -3.73%. Take `O=C(CCn1c(=O)oc2ccccc21)N1CCN(c2ccccc2F)CC1`: the inhibition is -5.79%. Under `CCn1nc(NC(=O)CC(C)C)c2cc3cccc(C)c3nc21` stands 1.41%; under `COc1ccc(-c2noc(CSc3nc4ccccc4c(=O)n3-c3ccccc3)n2)cc1`, -0.62%; under `O=C(CSc1nnc(CNC(=O)c2ccccc2)o1)NCc1ccccc1`, -1.83%. In the case of `Cc1ccc(S(=O)(=O)N2CCC(N3CCC(C)CC3)CC2)cc1`, the inhibition was -1.46%. Consider `CC(C)c1nc2cc(C(=O)N(C)C3CCOCC3)ccc2o1`, for which the inhibition came to 4.09%. For `CC(=O)Nc1nonc1NC(=O)CSc1ncn[nH]1`, the inhibition was -9.49%. Under `CCCC(=O)N(CCN1CCOCC1)c1nc2c(OC)ccc(C)c2s1` stands 1.9%; under `COc1ccc(CN2CCN(C(=O)Cn3ncn4cccc4c3=O)CC2)c(OC)c1OC`, -7.18%; under `COC(=O)CCC(=O)NNC(=O)c1cccc(Cl)c1`, -1.68%.

Take `O=C(NCCCNC(=O)NC1CCCCC1)NC1CCCCC1`: the inhibition is -5.15%. With `COc1ccc(-c2cc3c(=O)n(CC(=O)NCCCN4CCC(Cc5ccccc5)CC4)ncn3n2)cc1` the figure was 90.3%; with `CCc1c(C)nc(SCc2cccnc2)[nH]c1=O`, 1.43%; with `COc1ccc(C)cc1NC(=O)c1nnn(Cc2cccc(F)c2)c1N`, -9.93%.

For the compound `O=C(c1ccccc1)N1CCC(CC2CC(c3cccc(Br)c3)=NO2)(C(=O)NCC2CCCCC2)CC1` (stereo not drawn), the inhibition was found to be 16.1%. With `CN(C)c1ccc(/C=C/c2nc3ccccc3s2)cc1` the figure was 42.9%. With `Cc1cccc(NS(=O)(=O)c2cc3c(cc2C)n(C)c(=O)c(=O)n3C)c1` the figure was -6.75%. For the compound `COc1ccc(OC)c(-c2cc(C(=O)Nc3c(C)n(C)n(-c4ccccc4)c3=O)no2)c1`, the inhibition was found to be 18.7%.

With `CCn1c(CNc2ccccc2Cl)nnc1SCCN1CCCCC1`, the inhibition was -1.58%. On to `O=C(O)CSc1ncnc2c1sc1nc(-c3ccccc3)c3c(c12)CCC3`, for which the inhibition is -1.37%. Under `CN(C)CCCNc1oc(-c2ccccc2Cl)nc1S(=O)(=O)c1ccc(F)cc1` stands -1.96%; under `CCCN1CCN(C(=O)c2cc3c(s2)-c2ccccc2OC3)CC1`, 2.21%. Under `CCC(CC)Nc1ccc(C(CC(N)=O)NC(=O)c2ccccc2)cc1[N+](=O)[O-]` (stereo not drawn) stands 27.1%; under `Cn1c(SCC(=O)c2ccccc2)nnc1-c1cnccn1`, 1.54%; under `CCN(CC)c1ccc(N=Cc2c(O)n(-c3ccc(Cl)cc3)c(=O)[nH]c2=O)cc1`, 4.12%. With `S=C(NCCc1ccccc1)Nc1ccc(N2CCCCC2)cc1` the figure was 2.7%. Turning to `COC(=O)c1c(NC(=O)COc2ccc(Cl)cc2)sc2c1CC(C)(C)NC2(C)C`, the inhibition turned out to be 100%. Under `O=[N+]([O-])c1ccc(-c2nnc3n2CCCCC3)cc1` stands -8.52%; under `COc1cc(C(=O)NCCC(=O)NCCCN2CCCCC2)cc(OC)c1OC`, -0.97%; under `Cc1nnc(SCc2ccc(C(=O)Nc3cc(Cl)ccc3C)cc2)s1`, -1.77%. Under `COc1ccc(NC2CCCN(C(=O)c3ccc(C)c(N4CCNC4=O)c3)C2)cc1` (stereo not drawn) stands 2.82%; under `Cc1c(CCC(=O)O)c(=O)oc2cc3occ(-c4ccc(F)cc4)c3cc12`, 8.3%; under `CCCc1c(C(=O)N/N=C(/C)c2ccncc2)nnn1-c1nonc1N`, 5%.

As for `CSc1nc(C)c(C(=O)Nc2ccccc2)c(-c2ccco2)c1C#N`, the inhibition was determined as 53.6%.

Regarding `O=C(NC1CCCCC1)n1c(=O)oc2ccc(Cl)cc21`, the inhibition is 2.99%.

For `Cc1ccn(CCC(=O)Nc2ccc3c(c2)OCO3)n1`, the inhibition is 0.23%. Consider `COc1ccccc1-n1c(SCC(=O)Nc2ccc(NC(C)=O)cc2)nc2c([nH]c3ccccc32)c1=O`, for which the inhibition was 7.07%. Under `COc1ccc(-c2csc(N3CCN(Cc4ccc5c(c4)OCO5)CC3)n2)cc1` stands 0.46%; under `CC(C)CCn1c(=O)c(C(=O)NCc2ccc3c(c2)OCO3)c(O)c2ccccc21`, 3.69%. Under `CCc1ccc(CN2CCC(C(=O)Nc3cccc(-c4nnc(C)s4)c3)CC2)o1` stands 2.81%. With `COC(=O)c1ccccc1NC(=O)CCC(=O)N1CCSc2ccccc21` the figure was 0.04%; with `COC(=O)c1ccc(CN2CCCC(C(=O)Nc3ccc(-c4ccn[nH]4)cc3)C2)cc1` (stereo not drawn), 5.14%; with `Cc1c(NC(=O)COc2ccc(C(C)C)cc2)c(=O)n(-c2ccccc2)n1C`, -1.3%. Regarding `CCOc1cccc2cc(C(=O)Nc3cc(C)on3)c(=O)oc12`, the inhibition was found to be 3.23%. Under `Cc1ccc(C)c(NC(=O)CSc2nnc([C@@H](N)Cc3c[nH]c4ccccc34)o2)c1` stands -1.47%; under `COc1ccc(/C=N/Nc2nc(-c3ccc(C)cc3)c(NC(C)=O)s2)cc1OC`, 38%. Under `CCOc1cc(/C=C2\N=C(SC(C)C(N)=O)N(c3ccc(OC(F)F)cc3)C2=O)ccc1O` (stereo not drawn) stands 98.1%. Under `Cc1cc(F)ccc1NCC(=O)Nc1ccc(Br)cc1C` stands 29.6%. In the case of `O=C(Nc1nc2ccccc2n1CCN1CCCC1)C1CCCCC1`, the inhibition came out at 2.94%. Under `Cc1ccc(S(=O)(=O)N(CC(=O)N2CCOCC2)c2ccc(C(C)C)cc2)cc1` stands -0.39%.

With `Cc1cccc(OCCC(=O)NCC(c2ccccc2)N(C)C)c1` (stereo not drawn), the inhibition was -0.47%.
